This is an account of results in PubChem BioAssay AID1851 (National Center for Advancing Translational Sciences (NCATS), 2009).

Shown are results outside the selection of hits, which stands elsewhere. Inconclusive results are not listed. The source made the active and inactive calls. The call rests on the fitted dose curve; in most records, active means well fitted curve in the direction sought with a large enough effect; inconclusive means small, poorly fitted or top-dose-only effect, or effect the other way; inactive means no such curve, though single readings can be large or run the other way.

Broadly, the AC50 is the concentration giving half of the maximal activity seen.
On the % scale 0 is the no-effect control and ±100 the full control effect.

The experiment addresses Cytochrome P450 1A2 (Homo sapiens) (UniProt P05177). The experiment in a line: Cytochrome panel assay with activity outcomes. Particulars: recombinant CYP, pro-luciferin dealkylation, luminescence, p450-cyp1a2; series mostly up to 57.1 µM; activity, negative = inhibition: at the top concentration.
Chain of UniProt P05177 (P05177 whole entry, looked up): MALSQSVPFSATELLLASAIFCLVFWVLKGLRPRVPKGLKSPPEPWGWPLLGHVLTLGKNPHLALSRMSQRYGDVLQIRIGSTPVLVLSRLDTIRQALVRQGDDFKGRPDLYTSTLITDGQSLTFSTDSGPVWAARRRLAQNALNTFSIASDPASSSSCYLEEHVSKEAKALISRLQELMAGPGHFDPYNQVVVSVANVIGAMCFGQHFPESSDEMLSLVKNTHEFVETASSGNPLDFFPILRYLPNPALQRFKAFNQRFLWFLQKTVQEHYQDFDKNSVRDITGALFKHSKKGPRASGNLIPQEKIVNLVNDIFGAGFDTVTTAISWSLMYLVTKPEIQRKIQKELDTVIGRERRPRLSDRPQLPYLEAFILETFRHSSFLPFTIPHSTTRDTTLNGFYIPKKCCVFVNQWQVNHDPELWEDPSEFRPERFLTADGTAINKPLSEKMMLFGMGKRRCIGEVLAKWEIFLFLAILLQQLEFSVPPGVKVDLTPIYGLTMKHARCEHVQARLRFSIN
In the case of `C[C@@H]1C[C@H]2[C@@H]3C[C@H](F)C4=CC(=O)C=C[C@@]4(C)[C@]3(F)[C@H](O)C[C@]2(C)[C@@]1(O)C(=O)CO`, the “activity, negative = inhibition” value is inactive: -4% [at 25.6 µM].

On to `COC(=O)C1=C(C(=O)OC)C(c2cc(Cl)ccc2O)c2sc(=O)[nH]c2S1` (stereo not drawn), for which the half-maximal activity concentration (AC50) was active: 4.47 µM.

For the compound `CCC[C@H]1C[C@H](C(=O)N[C@@H]([C@H]2O[C@@H](SC)[C@@H](O)[C@@H](O)[C@@H]2O)[C@H](C)Cl)N(C)C1`, the “activity, negative = inhibition” value was inactive: -7.66% [at 25.6 µM].

For the compound `CCOc1cc(/C=N/n2cnnc2)ccc1OC(=O)c1cccc([N+](=O)[O-])c1`, the AC50 was active: 5.01 µM.

In the case of `Nc1ccc(Sc2ccccc2CC(=O)O)cc1`, the “activity, negative = inhibition” value is inactive: -15.5%.

Regarding `O=S(=O)(c1ccccc1)N1CCN(S(=O)(=O)c2ccccc2)c2ccccc21`, the activity, negative = inhibition was inactive: -19.9% [at 2.29 µM].

On to `CCN(C(=O)CSc1nnc(Cc2cccc3ccccc23)n1N)C1CCS(=O)(=O)C1` (stereo not drawn), for which the “activity, negative = inhibition” value is inactive: 3.12%.

For `COc1ccc(C2=NN(C)C(=NCc3ccccc3)SC2)cc1`, the AC50 was active: 14.1 µM.
